# Data: the antibiotic and cytotoxicity screens of Wong et al. (2023)
# The list shows a part of the results.
# Experiments:
# HSkMC = human skeletal muscle cells; experiment: cytotoxicity call (relative viability < 0.9); conditions: 10 µM
# HepG2 = experiment: cytotoxicity call (relative viability < 0.9); conditions: 10 µM
# S. aureus RN4220 = experiment: growth inhibition call (relative growth <= 0.2); conditions: 50 µM
SMILES,cytotoxicity call (HSkMC),cytotoxicity call (HepG2),growth inhibition call (S. aureus RN4220)
Cc1noc(C)c1NC(=O)Nc1cccc2c1O[C@H](CN(C)Cc1ccc(Oc3ccccc3)cc1)[C@@H](C)CN([C@H](C)CO)C2=O,inactive,inactive,inactive
COC(=O)c1cn(CC(=O)N2CCOCC2)nn1,inactive,inactive,inactive
C[C@H](CO)N1C[C@H](C)[C@H](CN(C)CC2CCOCC2)Oc2ncc(C#CCc3ccccc3)cc2C1=O,inactive,inactive,inactive
C[C@@H]1CN([C@@H](C)CO)C(=O)Cc2cc(NC(=O)Cn3cnnn3)ccc2O[C@H]1CN(C)C(=O)Nc1ccc(F)cc1,inactive,inactive,inactive
C[C@H](CO)N1C[C@H](C)[C@@H](CN(C)S(=O)(=O)c2ccccc2)OCCCC[C@H](C)Oc2ccc(NC(=O)Nc3ccccc3)cc2C1=O,inactive,inactive,inactive
C[C@@H]1CN([C@@H](C)CO)C(=O)Cc2cc(NC(=O)Nc3cccc4ccccc34)ccc2O[C@H]1CN(C)C(=O)Nc1ccc(C(F)(F)F)cc1,inactive,inactive,inactive
COc1cccc(-c2ccc3c(c2)O[C@H](CN(C)C(=O)C2CCC2)[C@H](C)CN([C@H](C)CO)S3(=O)=O)c1,inactive,inactive,inactive
O=C(O)c1ccc(N[C@@H]2OC[C@H](O)[C@@H](O)[C@@H]2O)cc1,inactive,inactive,inactive
C[C@H](CO)N1C[C@H](C)[C@H](CN(C)Cc2ccc(Oc3ccccc3)cc2)Oc2c(NC(=O)CCCCCC(=O)Nc3ccccc3N)cccc2C1=O,inactive,inactive,inactive
Cc1ccc(S(=O)(=O)N(C)C[C@H]2OCCCC[C@H](C)Oc3ccc(NS(=O)(=O)c4ccc(Cl)cc4)cc3C(=O)N([C@H](C)CO)C[C@H]2C)cc1,inactive,inactive,inactive
C[C@@H]1CCCCO[C@H](CN(C)C(=O)CCC(F)(F)F)[C@H](C)CN([C@H](C)CO)C(=O)c2cc(NC(=O)c3ccccc3)ccc2O1,inactive,inactive,inactive
C[C@@H]1CCCCO[C@@H](CN(C)Cc2ccc(C(=O)O)cc2)[C@@H](C)CN([C@@H](C)CO)C(=O)c2cc(NC(=O)c3ccccc3)ccc2O1,inactive,inactive,inactive
COc1cccn(CC(=O)NN)c1=O,inactive,inactive,inactive
COc1cccc(S(=O)(=O)Nc2ccc3c(c2)[C@@H]2C[C@H](CC(=O)NC4CCCCC4)O[C@H](CO)[C@@H]2O3)c1,inactive,inactive,inactive
C[C@H](CO)N1C[C@H](C)[C@@H](CN(C)C(=O)C2CCOCC2)Oc2ncc(-c3cccc(C#N)c3)cc2C1=O,inactive,inactive,inactive
C[C@@H]1CN([C@@H](C)CO)C(=O)CCCn2nncc2CO[C@@H]1CN(C)Cc1ccc(C(=O)Nc2ccccc2N)cc1,inactive,inactive,inactive
C[C@H]1CN([C@@H](C)CO)C(=O)Cc2cc(NC(=O)Nc3ccc(F)cc3)ccc2O[C@H]1CN(C)Cc1ccc(C(F)(F)F)cc1,active,active,inactive
C[C@H]1CN([C@@H](C)CO)C(=O)c2cccc(NC(=O)c3ccc(-c4nccs4)cc3)c2O[C@H]1CN(C)Cc1ccc(Oc2ccccc2)cc1,inactive,inactive,inactive
CC(=O)OCC(=O)C1(O)CCC2C3CCC4=CC(=O)CCC4(C)C3C(=O)CC21C (configuration not stated),inactive,inactive,inactive
COc1ccccc1C#Cc1ccc2c(c1)O[C@@H](CN(C)Cc1cccnc1)[C@@H](C)CN([C@@H](C)CO)S2(=O)=O,inactive,active,inactive
C[C@H](CO)N1C[C@H](C)[C@@H](CN(C)Cc2ccc(-c3ccccc3)cc2)Oc2ccc(NC(=O)Nc3ccccc3)cc2C1=O,inactive,active,inactive
C[C@@H]1CN([C@@H](C)CO)C(=O)c2cc(NC(=O)Cn3cnnn3)ccc2O[C@H]1CN(C)CC1CCCCC1,inactive,inactive,inactive
C[C@H]1CN([C@@H](C)CO)C(=O)c2cccc(NS(=O)(=O)c3ccccc3)c2O[C@H]1CN(C)CC1CC1,inactive,inactive,inactive
C[C@]1(O)CC[C@@H]2C(C(=O)O)=CO[C@@H](O[C@@H]3O[C@H](COC(=O)/C=C/c4ccc(O)c(O)c4)[C@@H](O)[C@H](O)[C@H]3O)[C@@H]21,inactive,inactive,inactive
Cl.N=C(N)NC(=O)c1nc(Cl)c(N)nc1N,inactive,inactive,inactive
Cc1noc(C)c1NC(=O)Nc1ccc2c(c1)C(=O)N([C@H](C)CO)C[C@@H](C)[C@H](CN(C)Cc1ccc(C(=O)O)cc1)OCCCC[C@@H](C)O2,inactive,inactive,inactive
COc1ccc(NC(=O)Nc2ccc3c(c2)C(=O)N([C@@H](C)CO)C[C@@H](C)[C@@H](CN(C)C(=O)NC(C)C)OCCCC[C@H](C)O3)cc1,inactive,inactive,inactive

SMILES,cytotoxicity call (HSkMC),cytotoxicity call (HepG2),growth inhibition call (S. aureus RN4220)
CC1OC(OCC2OC(Oc3c(-c4ccc(OCCO)c(OCCO)c4)oc4cc(OCCO)cc(O)c4c3=O)C(O)C(O)C2O)C(O)C(O)C1O (configuration not stated),inactive,inactive,inactive
Cc1noc(C)c1NC(=O)N(C)C[C@@H]1Oc2ccc(NC(=O)NC(C)C)cc2C(=O)N([C@@H](C)CO)C[C@H]1C,inactive,inactive,inactive
Cc1noc(C)c1S(=O)(=O)Nc1ccc2c(c1)C(=O)N([C@H](C)CO)C[C@H](C)[C@@H](CN(C)C(=O)NC1CCCCC1)O2,inactive,inactive,inactive
COc1ccc(NC(=O)Nc2ccc3c(c2)C(=O)N([C@@H](C)CO)C[C@@H](C)[C@@H](CN(C)Cc2ccc(-c4ccccc4)cc2)O3)cc1,inactive,active,inactive
C[C@H](CO)N1C[C@H](C)[C@H](CN(C)S(=O)(=O)c2ccccc2)OCCCC[C@H](C)Oc2ccc(NC(=O)Nc3ccc(C(F)(F)F)cc3)cc2C1=O,inactive,inactive,inactive
C[C@@H]1CCCCO[C@H](CN(C)S(C)(=O)=O)[C@H](C)CN([C@@H](C)CO)C(=O)c2cc(NC(=O)Nc3cccc4ccccc34)ccc2O1,inactive,inactive,inactive
CNC[C@@H]1OCCCC[C@H](C)Oc2ccc(NS(=O)(=O)c3c(C)noc3C)cc2C(=O)N([C@@H](C)CO)C[C@H]1C,inactive,inactive,inactive
O=C1c2ccccc2C(=O)C1c1ccc(Br)cc1,inactive,inactive,inactive
C[C@@H]1CN([C@@H](C)CO)C(=O)c2cc(NC(=O)Cc3ccccc3)ccc2O[C@@H](C)CCCCO[C@@H]1CN(C)Cc1ccc2c(c1)OCO2,inactive,inactive,inactive
C[C@H]1CCCCO[C@H](CN(C)C(=O)Nc2ccc(C(F)(F)F)cc2)[C@@H](C)CN([C@@H](C)CO)C(=O)c2cc(NC(=O)Nc3ccc(C(F)(F)F)cc3)ccc2O1,inactive,active,inactive
CC(C)C#Cc1ccc2c(c1)O[C@H](CN(C)C(=O)Cc1ccccn1)[C@@H](C)CN([C@H](C)CO)S2(=O)=O,inactive,inactive,inactive
OC[C@H]1O[C@H](n2nnc3ccccc32)[C@@H](O)[C@@H](O)[C@@H]1O,inactive,inactive,inactive
O=c1c(O)c(-c2ccccc2)oc2cc(O)cc(O)c12,inactive,inactive,inactive
C[C@@H]1CCCCO[C@@H](CN(C)Cc2ccc(Cl)c(Cl)c2)[C@@H](C)CN([C@@H](C)CO)C(=O)c2cc(NC(=O)NC3CCCCC3)ccc2O1,inactive,active,inactive
C[C@H]1CN([C@@H](C)CO)C(=O)c2cc(C#CCc3ccccc3)cnc2O[C@H]1CN(C)C(=O)C1CCOCC1,inactive,inactive,inactive
Cn1cnc(CCNC(=O)C[C@H]2CC[C@@H]3[C@H](COC[C@@H](O)CN3C(=O)Nc3ccc(Cl)cc3)O2)c1,inactive,inactive,inactive
C[C@@H]1CCCCO[C@@H](CN(C)S(=O)(=O)c2ccccc2)[C@H](C)CN([C@@H](C)CO)C(=O)c2cc(NC(=O)Nc3cccc4ccccc34)ccc2O1,inactive,inactive,inactive
C#CCN(C)C1CCN(C(C)=O)CC1,inactive,inactive,inactive
C[C@@H]1CN([C@H](C)CO)C(=O)CCCn2nncc2CO[C@H]1CN(C)C(=O)Nc1ccc(N2CCCCC2)cc1,inactive,inactive,inactive
Cc1noc(C)c1S(=O)(=O)Nc1ccc2c(c1)C(=O)N([C@@H](C)CO)C[C@H](C)[C@@H](CN(C)S(=O)(=O)c1cn(C)cn1)O2,inactive,inactive,inactive
C[C@H](CO)N1C[C@H](C)[C@H](CN(C)S(=O)(=O)c2cccs2)OCCCC[C@H](C)Oc2ccc(NS(=O)(=O)c3ccc(Cl)cc3)cc2C1=O,inactive,inactive,inactive
CO[C@H]1CN(C)C(=O)c2cc(NS(=O)(=O)c3cn(C)cn3)ccc2OC[C@@H](C)N(CCC(F)(F)F)C[C@H]1C,inactive,inactive,inactive
COc1cc2c(cc1OC)C1C(=O)c3ccc4c(c3OC1CO2)C=CC(C)(C)O4 (configuration not stated),inactive,active,inactive
C[C@H](CO)N1C[C@H](C)[C@@H](CN(C)C(=O)Nc2ccccc2)Oc2c(NC(=O)c3ccc(-c4nccs4)cc3)cccc2C1=O,inactive,inactive,inactive
C[C@H](CO)N1C[C@H](C)[C@@H](CN(C)CC2CC2)OCCCC[C@H](C)Oc2ccc(NC(=O)Nc3ccccc3)cc2C1=O,inactive,inactive,inactive
C[C@H]1CN([C@@H](C)CO)S(=O)(=O)c2ccc(/C=C/c3ccccc3)cc2O[C@@H]1CN(C)C(=O)Nc1cc(F)ccc1F,inactive,inactive,inactive
C[C@H](CO)N1C[C@H](C)[C@H](CN(C)C(=O)Nc2ccccc2C(F)(F)F)OCc2ccccc2-c2c(n(C)c3ccccc23)C1=O,inactive,inactive,inactive
